In all, about 130,000 compounds went through this assay and about 1,200 (0.92%) were called active. Inconclusive results, whose numbers are uncertain, are shown with a selection of clear calls. Calls follow the shape of the dose curve; as a rule, active = well fitted cell-killing curve with a large enough effect; inconclusive = small, poorly fitted or top-dose-only effect; inactive = no such curve, though single readings can be large or run the other way. A potency beside an inconclusive call is a rough fit, not a confirmed value.
Experiment: qHTS Screen for Compounds that Selectively Target Cancer Cells with p53 Mutations: Cytotoxicity of p53ts Cells at the Permissive Temperature; also: nearly all actives have a fitted effect of over 55% in size;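 as to activity change, negative = cytotoxicity: 0% = DMSO and -100% = full killing by reference compound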
Settings: H1299-p53A138V at 32C, ATP luminescence viability, 24 h; activity change, negative = cytotoxicity: at 46.1 µM (top of the series)
How it was run: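 H1299-p53 A138V cells (temperature-sensitive p53) exposed 24 h to up to 46 uM compound at 32C, where p53 is wild-type in conformation. Viability read as ATP luminescence and normalised to DMSO and 100 uM tamoxifen. AC50 fitted with the Hill equation.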
Potency is read from the fitted curve at half-maximal effect; tags tell the direction and shape of the fitted curve.

Row | SMILES | Potency | activity change, negative = cytotoxicity
1 | O=C(Nc1ccc(OCC(=O)N2CCN(S(=O)(=O)c3ccccc3)CC2)cc1)c1ccco1 | inconclusive: 12.6 µM [cytotoxic, single point] | 
2 | COc1ccccc1OCc1nc(-c2cccc(C)c2)no1 | inconclusive: 10 µM [cytotoxic, single point] | 
3 | OCC1OC(n2cnc3c(Cl)nc(Cl)nc32)C(O)C1O (stereo unspecified) | inconclusive: 31.6 µM [cytotoxic, single point] | 
4 | Cc1ccc(Cl)cc1NS(=O)(=O)c1ccc(N2CCCCS2(=O)=O)cc1 | inactive | 
5 | Cc1ccc(Nc2nc(N)nc(CSc3nccn3C)n2)cc1 | inconclusive: 15.8 µM [cytotoxic, single point] | 
6 | O=C(COc1ccc(F)cc1)Nc1ccc(Cl)c(-c2nc3ccccc3[nH]2)c1 | inconclusive: 31.6 µM [cytotoxic, single point] | 
7 | COc1ccc(C(=O)Nc2cc(OC)nc(OC)n2)cc1 | active: 15.8 µM | 
8 | FC(F)(F)c1cc(CO[C@@H]2CCCN[C@H]2c2ccccc2)cc(C(F)(F)F)c1 | inconclusive: 20 µM [cytotoxic, single point] | 
9 | COC1=C(OC)C(=O)c2ccccc2C1=O | active: 6.31 µM | 
10 | COc1ccc(OCc2cccc(C(=O)N3CCCC3)c2)cc1 | inconclusive: 15.8 µM [cytotoxic, partial curve] | 
11 | CCn1c2ccccc2c2nnc(SCC(=O)NC(C(=O)OC)C(C)C)nc21 (stereo unspecified) | inactive | 
12 | CCn1cc(SCC(=O)NCC2CCCO2)c2ccccc21 (stereo unspecified) | inconclusive: 15.8 µM [cytotoxic, single point] | 
13 | CCOc1ccc(C(=O)Nc2ccc3c(c2)OCCO3)cc1Br | inconclusive: 10 µM [cytotoxic, partial curve] | 
14 | CCOc1ccc(NC(=O)CSc2oc(-c3ccc(C)cc3)nc2S(=O)(=O)c2ccc(C)cc2)cc1 | active: 12.6 µM | 
15 | Cc1ccccc1NC(=O)c1cnc2ccccn2c1=O | active: 10 µM | 
16 | Cc1cccc(CNC(=O)CN2C(=O)CSc3c2c(C)nn3-c2ccccc2)c1 | inactive | 
17 | CCOC(=O)c1ccc2nc(NC(=O)c3cccs3)sc2c1 | inconclusive: 12.6 µM [cytotoxic, partial curve] | 
18 | CCOc1cc2c(cc1OCC)C(CC(=O)O)N(C(=O)Nc1ccccc1C(F)(F)F)CC2 (stereo unspecified) | inactive | 
19 | Cc1ccc(-c2cc(C(=O)NCc3cccnc3)no2)cc1 | inconclusive: 15.8 µM [cytotoxic, single point] | 
20 | COc1cccc(NC(=O)c2ccc3c(c2)CCN3S(C)(=O)=O)c1 | inconclusive: 20 µM [cytotoxic, single point] | 
21 | CCOc1nc2cccc(C(=O)OC(C)OC(=O)OC3CCCCC3)c2n1Cc1ccc(-c2ccccc2-c2nn[nH]n2)cc1 (stereo unspecified) | inconclusive: 25.1 µM [cytotoxic, single point] | 
22 | Cn1c(=O)[nH]c(=O)c2c1nc(CN1CCN(c3cccc(Cl)c3)CC1)n2Cc1ccccc1Cl | inconclusive: 20 µM [cytotoxic, single point] | 
23 | Cc1cccc(-c2noc(-c3ccc(F)cc3)n2)c1 | inconclusive: 12.6 µM [cytotoxic, partial curve] | 

Row | SMILES | Potency | activity change, negative = cytotoxicity
24 | COC(=O)NCC(c1cccnc1)N1CCN(c2ccc(F)cc2)CC1 (stereo unspecified) | inconclusive: 35.5 µM [cytotoxic, single point] | 
25 | Cc1ccc(-n2ncc3c(NCCC4=CCCCC4)ncnc32)cc1 | inactive | 
26 | CC(=O)Nc1ccc(-c2nc3c(C)cccc3[nH]2)cc1 | inconclusive: 10 µM [cytotoxic, partial curve] | 
27 | COc1ccccc1N1CCN(CCCNC(=O)c2cnn(-c3cccc(Cl)c3)c2C2CCN(C(=O)OC(C)(C)C)CC2)CC1 | inconclusive: 25.1 µM [cytotoxic, single point] | 
28 | Cc1ccc(Cl)cc1NC(=O)Cn1c(=O)oc2cc(S(=O)(=O)N3CCCC3)ccc21 | inconclusive: 11.2 µM [cytotoxic, partial curve] | 
29 | Cc1ccc(-n2ncc3c(Nc4cccc(C)c4C)ncnc32)cc1 | inactive | 
30 | Cc1ccc2[nH]c(=O)c(CN(Cc3ccccc3)Cc3nnnn3C3CCCC3)cc2c1 | inconclusive: 12.6 µM [cytotoxic, partial curve] | 
31 | Cn1c(=S)c2[nH]c(SCCN3C(=O)c4ccccc4C3=O)nc2n(C)c1=O |  | inactive: -1.97% [at 9.22 µM]
32 | CCOc1ccc(C(=O)Nc2nnn(CC)n2)cc1 | active: 10 µM | 
33 | O=C(Nc1cccc(Br)c1)c1cc2ccccc2o1 | inconclusive: 20 µM [cytotoxic, single point] | 
34 | CCCCCCOC(=O)Sc1nc2ccccc2o1 | inconclusive: 31.6 µM [cytotoxic, single point] | 
35 | Cc1ccc2nc(-c3cccc(NC(=O)c4cccc5ccccc45)c3)oc2c1 | inconclusive: 12.6 µM [cytotoxic, single point] | 
36 | Cc1ccc(OCc2ccc(-c3nc(C#N)c(NCc4ccccc4Cl)o3)o2)cc1 | inconclusive: 15.8 µM [cytotoxic, single point] | 
37 | COc1ccccc1Nc1nn2c(=O)c3ccc(C(=O)NCCC4=CCCCC4)cc3nc2s1 | active: 5.01 µM | 
38 | Cc1onc(-c2ccccc2)c1C(=O)OCC(=O)c1ccccc1 | inactive | 
39 | c1ccc(-c2nc3ccccc3o2)nc1 | inconclusive: 10 µM [cytotoxic, partial curve] | 
40 | COc1ccc(Cn2ccnc2SCC(=O)NCc2ccco2)cc1 | inactive | 
41 | COc1ccc2nc(C)cc(Nc3ccc(Cl)c(Cl)c3)c2c1 | inconclusive: 12.6 µM [cytotoxic, single point] | 
42 | O=C(Nc1ccc2oc(-c3ccccc3F)nc2c1)c1ccc2c(c1)OCCO2 | active: 12.6 µM | 
43 | O=C(NCCc1nc2ccccc2n1CCCOc1ccc(Cl)cc1)C1CCCCC1 | inconclusive: 35.5 µM [cytotoxic, single point] | 
44 | CC(C)N(CCC(=O)c1ccc2ccccc2c1)Cc1ccccc1 | active: 20 µM | 
45 | COc1ccc(C(=O)N2CCC3(CCCN(c4cccc(-c5ccccc5)c4)C3)CC2)cc1 | inactive | 
46 | Cc1nn(Cc2ccc(C(=O)Nc3nccs3)cc2)c(C)c1Cl | inactive | 

Reference: PubChem BioAssay AID924 (National Center for Advancing Translational Sciences (NCATS), 2007)
